Source: PubChem BioAssay AID504832 (National Center for Advancing Translational Sciences (NCATS), 2011)
Hit rate of the full screen: of about 310,000 compounds, about 18,000 (5.8%) were called active. Inconclusive means that the source gave no clear call. Such entries were picked first, then a sample of the others. Calls come from the whole dose curve; as a rule, active = well fitted inhibition curve with a large enough effect; inconclusive = small, poorly fitted or top-dose-only effect, or another doubt; inactive = no such curve, though single readings can be large or run the other way. No potency is given beside an inconclusive call; the fits are too rough.

Assay: Primary qHTS for delayed death inhibitors of the malarial parasite plastid, 48 hour incubation
Conditions: P. falciparum luciferase growth in erythrocytes; series mostly up to 28.7 µM
In short: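 A one-generation exposure of luciferase-tagged malaria parasites in RPMI 1640/Albumax erythrocyte culture, 37 C and 5% CO2. Inhibition is inferred from decreased luminescence after adding detection reagent.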
Potency is the fitted concentration of half-maximal effect; tags give direction and shape of the fitted curve.

**Q.** Which Potency does the source give for Cc1ccc(N(CC(=O)N2CCN(c3ccccc3F)CC2)S(=O)(=O)c2c(C)noc2C)cc1 here?
**A.** inconclusive [inhibitor, single point]

**Q.** Which Potency does the source give for CCc1ccccc1N(CC(=O)NCc1ccc(OC)cc1)C(=O)CCC(=O)Nc1ccccn1 here?
**A.** inconclusive [inhibitor, single point]

**Q.** For O=C(NCC(c1ccccc1Cl)N1CCCC1)C1CCN(C(=O)Nc2ccccc2)CC1 (stereo not drawn), which Potency is on record?
**A.** inconclusive [inhibitor, partial curve]

**Q.** With COc1ccc(OC)c(NS(=O)(=O)c2ccc3c(c2)CCC(=O)N3)c1 as the compound, how does the Potency read?
**A.** inactive

**Q.** Which Potency does the source give for COC(=O)/C(=C\c1ccc(O)cc1)c1nc2ccccc2[nH]1 here?
**A.** inactive

**Q.** Which Potency does the source give for CCCn1nc(C(=O)Nc2cccc(C(=O)OC)c2)c2ccccc2c1=O here?
**A.** inconclusive [inhibitor, single point]

**Q.** For O=C(CN1CCN(S(=O)(=O)c2cc(C(F)(F)F)ccc2Cl)CC1)N1CCc2ccccc2C1, which Potency is on record?
**A.** active: 13.1 µM

**Q.** For COc1ccc(-n2c(SCC(=O)Nc3ccc([N+](=O)[O-])cc3OC)nc3ccccc32)cc1, which Potency is on record?
**A.** inconclusive [inhibitor, full curve]

**Q.** With COc1cccc(-c2csc(N3CCN(C(=O)Nc4ccccc4OC)CC3)n2)c1 as the compound, how does the Potency read?
**A.** inconclusive [inhibitor, single point]

**Q.** With CN(C(=O)COC(=O)CNC(=O)c1sc2ccccc2c1Cl)c1ccccc1 as the compound, how does the Potency read?
**A.** inactive

**Q.** For Cc1ccc(Cl)cc1N1CCN(C(=O)C2(S(=O)(=O)c3ccc(Cl)cc3)CC2)CC1, which Potency is on record?
**A.** inconclusive [inhibitor, single point]

**Q.** With CCOc1ccc(NC(=O)CN(C)S(=O)(=O)c2cccc3cccnc23)cc1 as the compound, how does the Potency read?
**A.** inactive

**Q.** With COc1ccc(C(NC(=O)C(C)C)c2ccc3cccnc3c2O)cc1 (stereo not drawn) as the compound, how does the Potency read?
**A.** inconclusive [inhibitor, full curve]

**Q.** For O=C(C1CCN(c2ncnc3c2nc2n3CCCCC2)CC1)N1CCN(c2cccc(Cl)c2)CC1, which Potency is on record?
**A.** inactive

**Q.** For Cc1oc2cc3oc(=O)c(CC(=O)NCC(=O)N[C@@H](C(=O)O)c4ccccc4)c(C)c3cc2c1C, which Potency is on record?
**A.** inactive

**Q.** With CCN(CC)C(=O)CSc1nnc(CNc2ccc(F)cc2)o1 as the compound, how does the Potency read?
**A.** inactive

**Q.** With O=C(Nc1ccc(Br)c(C(F)(F)F)c1)c1ccccc1 as the compound, how does the Potency read?
**A.** inactive

**Q.** Which Potency does the source give for COc1ccccc1C1CC(c2cccc(NS(C)(=O)=O)c2)=NN1S(=O)(=O)c1ccccc1 (stereo not drawn) here?
**A.** inconclusive [inhibitor, partial curve, poor fit]

**Q.** For CC1=NN(C(=O)c2csc(C(C)C)c2)C(O)(C(F)(F)F)C1 (stereo not drawn), which Potency is on record?
**A.** inconclusive [inhibitor, partial curve]

**Q.** With Cc1cccc(C)c1OC(=O)CN(c1ccc(Cl)cc1)S(C)(=O)=O as the compound, how does the Potency read?
**A.** inconclusive [inhibitor, partial curve, poor fit]

**Q.** For COc1ccc(C(=O)NC(C(=O)N2CCc3ccccc32)C(C)C)cc1 (stereo not drawn), which Potency is on record?
**A.** inconclusive [inhibitor, partial curve, poor fit]

**Q.** With Cc1cc(C)c(C(=O)/C=C/c2cccs2)c(=O)[nH]1 as the compound, how does the Potency read?
**A.** inactive

**Q.** With Cc1scc(C(=O)N/N=C/c2ccc([N+](=O)[O-])o2)c1C as the compound, how does the Potency read?
**A.** active: 4.15 µM

**Q.** For COc1ccc(OC)c(NC(=O)CN(C)CCOc2ccc(Br)cc2)c1, which Potency is on record?
**A.** inconclusive [inhibitor, full curve, poor fit]

**Q.** With c1ccc(-c2nc(NCCCN3CCOCC3)c3ccccc3n2)cc1 as the compound, how does the Potency read?
**A.** inconclusive [inhibitor, single point]

**Q.** With COc1ccccc1CN1CCCC(CN(CCN(C)C)C(=O)c2ccc(C)cc2)C1 (stereo not drawn) as the compound, how does the Potency read?
**A.** inactive

**Q.** With Cc1cc(C)c2[nH]c(=O)c(C(c3nnnn3C(C)(C)C)N3CCN(C(=O)c4ccco4)CC3)cc2c1 (stereo not drawn) as the compound, how does the Potency read?
**A.** inconclusive [inhibitor, partial curve, poor fit]

**Q.** With COc1ccc(NC(=O)CN(Cc2ccccc2)Cc2ccccc2)cc1S(N)(=O)=O as the compound, how does the Potency read?
**A.** inconclusive [inhibitor, partial curve, poor fit]

**Q.** Which Potency does the source give for O=C(c1ccco1)N1CCN(C(=O)c2ccc(COc3ccc4c(c3)CCC4)o2)CC1 here?
**A.** inconclusive [inhibitor, partial curve, poor fit]

**Q.** Which Potency does the source give for CCc1nc2ccccc2n1CC(=O)Nc1cc(C)on1 here?
**A.** inactive

**Q.** Which Potency does the source give for CCCc1nc2c(=O)n(C)c(=O)nc-2n(C)n1 here?
**A.** active: 5.22 µM

**Q.** Which Potency does the source give for O=C(CCn1cnnn1)Nc1ccc(F)cc1 here?
**A.** inactive

**Q.** Which Potency does the source give for COc1cccc(CCNC(=O)c2cccc(NC(=O)C3=C(C)OCCS3)c2)c1 here?
**A.** inconclusive [inhibitor, single point]

**Q.** For COc1ccccc1NS(=O)(=O)c1cc(NC(=O)C(C)(C)C)ccc1N1CCOCC1, which Potency is on record?
**A.** inconclusive [inhibitor, partial curve]

**Q.** For Cc1ccc(C(=O)NC2CCN(C(=O)Nc3ccccc3)CC2)cc1, which Potency is on record?
**A.** inconclusive [inhibitor, partial curve, poor fit]

**Q.** With CCCSc1nnc(-c2cccc(S(=O)(=O)N(C)C)c2)n1-c1cc(OC)ccc1OC as the compound, how does the Potency read?
**A.** inconclusive [inhibitor, partial curve, poor fit]

**Q.** With Cc1ccc(NC(=S)NC2CC3CCCC(C2)N3Cc2cccs2)cc1 (stereo not drawn) as the compound, how does the Potency read?
**A.** inconclusive [inhibitor, partial curve]

**Q.** Which Potency does the source give for Cc1ccc(S(C)(=O)=N/C=C2\C(=O)c3sccc3N(C)S2(=O)=O)cc1 (stereo not drawn) here?
**A.** inconclusive [inhibitor, full curve, poor fit]

**Q.** Which Potency does the source give for CCOC(=O)c1cc(/C(C)=N/OC(=O)c2ccc(Cl)cc2)on1 here?
**A.** inactive

**Q.** Which Potency does the source give for CCOC(=O)N1CCN(c2nc3ccc(C)cc3n3cnnc23)CC1 here?
**A.** inactive

**Q.** Which Potency does the source give for COc1ccc(S(=O)(=O)N2CCCCC2)cc1NC(=O)CNc1ccc(F)cc1C here?
**A.** inconclusive [inhibitor, partial curve]

**Q.** Which Potency does the source give for N#Cc1c(-c2cccnc2)c2c([nH]c1=O)-c1ccccc1OC2 here?
**A.** inconclusive [inhibitor, full curve, poor fit]

**Q.** Which Potency does the source give for Cc1ccc(-c2nc3cccnc3s2)cc1NC(=O)C1c2ccccc2Oc2ccccc21 here?
**A.** inconclusive [inhibitor, single point]
